The text below walks through data of PubChem BioAssay (NCI).

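96-well plates; 48 h exposure; 5 concentrations. Endpoints by linear interpolation between flanking doses. Not reached: highest tested concentration assigned. Abbreviation: GI50, concentration required for 50% inhibition of growth. Definition used: TGI = concentration required for complete inhibition of growth.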 Numbered stars: 1 amine (or outer) side, 2 acyl side, 3 side chain; on linkers, the order of the positions; unused ones are H or OH. Square brackets hold non-standard residues; d marks the D form. Peptide text beside a SMILES is read from it. * marks the point of attachment. X9 = C/C=C/CC(C)C(O)[C@H](N[*:1])C(=O)[*:2]; Decanoyl = CCCCCCCCCC(=O)*; Leu(ol) = CC(C)C[C@H](N)CO; Iva = CC[C@](C)(N)C(=O)O; Aib = CC(C)(N)C(=O)O

This assay relates to NCI-H322M lung. Nature of the assay: growth of human tumour cells (NCI), 48 h.
With `Cc1[nH]c(C(=O)Nc2ccc(S(=O)(=O)N3CCCCC3)cc2OCCOCCOCCOCCOCCOCCOCCOCCOCCOc2cc(S(=O)(=O)N3CCCCC3)ccc2NC(=O)c2[nH]c(C)c3c2CCCCC3=O)c2c1C(=O)CCCC2`, the GI50 was 1010 nM and the TGI is greater than 100 µM.
Taken in the same sequence, the figures for `CN1CCN(c2ccc(Nc3nc(NCCNS(=O)(=O)c4ccc5ccccc5c4)c4sccc4n3)cc2)CC1` were 13300 nM and 26.9 µM.
Consider `C/C=C/CC(C)C(O)[C@H](NC(=O)[C@@H]1CCCN1C(=O)C(C)(C)NC(=O)CCCCCCCCC)C(=O)N[C@@](C)(CC)C(=O)N[C@@H](CCC(N)=O)C(=O)N[C@H](CCC(N)=O)C(=O)NC(C)(C)C(=O)N[C@@](C)(CC)C(=O)N[C@@H](CCC(N)=O)C(=O)N[C@H](CC(C)C)C(=O)N[C@H](CO)CC(C)C` (stereo partly drawn) (Decanoyl-[Aib]P[X9][Iva]Q[dQ][Aib][Iva]Q[dL][Leu(ol)]), for which the GI50 was 312 nM and the TGI was 1.23 µM.
